Assay results taken from PubChem BioAssay AID463254 (National Center for Advancing Translational Sciences (NCATS), 2010).
The whole screen tested about 330,000 compounds, of which about 40 (0.01%) were called active. This list was built around the results that the source calls inconclusive (neither active nor inactive); the mix of calls is not that of the screen. Calls follow the shape of the dose curve; as a rule, active = well fitted inhibition curve with a large enough effect; inconclusive = small, poorly fitted or top-dose-only effect, or effect the other way; inactive = flat fitted curve, though single readings scatter. A potency beside an inconclusive call is a rough fit, not a confirmed value.

What follows are compounds tested against Ubiquitin carboxyl-terminal hydrolase 2 (Homo sapiens) (UniProt O75604) (assay: qHTS Assay for Inhibitors of Ubiquitin-specific Protease USP2a Using CHOP2 as the Reporter). Settings: USP2 core, Ub-CHOP2 coupled fluorogenic reporter, 485/531; series mostly up to 38.3 µM.
Source text: NIH Molecular Libraries Screening Centers Network [MLSCN] NIH Chemical Genomics Center [NCGC] MLSCN Grant: XO1-MH079852-01 PI Name: Nicholson, Ben. Progenra Inc, Malvern, PA NCGC Assay Overview: Homeostasis of cellular proteins is maintained through a combination of synthesis and degradation. The pathway that accounts for the majority of protein degradation is the ubiquitin-proteasomal pathway. Ubiquitin (Ub) is highly conserved in all cells and the generation of a multi-Ub chain typically targets proteins for degradation by the proteasome. However, ubiquitination is highly reversible and dynamic. Deubiquitination, the reverse process, is catalyzed through the action of enzymes referred to as isopeptidases or deubiquitinating enzymes (DUBs). This group of enzymes is collectively responsible for maintaining adequate pools of free ubiquitin and regulating the ubiquitination status of cellular proteins. The class of DUBs referred to as the ubiquitin-specific proteases (USP) family functions endoproteolytically to cleave Ub chains from a wide range of protein substrates. USP2a deubiquitinates fatty acid synthase (FASN) which has recently been identified as an emerging oncology target. To identify inhibitors of USP2a a cell-free assay was employed. […] The reporter enzyme chosen is an enterokinase called CHOP2, which is activated when the Ub is cleaved by USP2. The free and now activated reporter can subsequently act on its reporter substrate. Thus, this coupled assay gives a fluorescent read-out at excitation/emission wavelengths of 485/531. The assay was developed by Progenra, Inc. and has been licensed for sale by LifeSensors, Inc. as Ub-CHOP2-Reporter-Kit (#PR1101).
NCGC Assay Protocol Summary: The assay buffer, prepared fresh at the day of the assay, contains 20mM Tris-HCl pH 8.0, 2mM CaCl2, 2mM beta-Mercaptoethanol, 0.05% CHAPS. 3ul of 20nM (10nM final) USP2 core, which is stored on ice, is dispensed into a medium-binding black solid Kalypsys 1,536 well plate using the Kalypsys dispenser. The assay plate is then pinned with 23nL compound with the Kalypsys pintool in columns 5-48. The controls are pinned as follows: column 1 two-fold dilutions of 2M NEM in duplicate; column 2 2M NEM (final concentration 38.2mM); column 3&4 DMSO. The assay plate is incubated at RT for 30min. Subsequently, 1.5uL of 100nM (25nM final) Ub-CHOP2 and 1.5uL of 100nM (25nM final) Reporter Substrate (both stored on ice and protected from light) were dispensed into the plate using the Kalypsys dispenser. Plates were read after 60min RT incubation on a ViewLux (Perkin Elmer) plate reader using the following wavelengths Ex 485nm /Em 531nm. Data were normalized to the to AC100 inhibition (NEM). Concentration-response curves were fitted to the normalized data and the concentration-response curves were then classified based on curve quality (r2), response magnitude and degree of measured activity. The time zero reading was used to flag fluorescence artifacts. Keywords: ubiquitination, deubiquitination, proteases, profluorescent, MLSMR, MLPCN, NIH Roadmap, qHTS, NCGC
Potency is read from the fitted curve at half-maximal effect; tags tell the direction and shape of the fitted curve or compound fluorescence and quenching.

Chain of UniProt O75604 (O75604 whole entry, looked up): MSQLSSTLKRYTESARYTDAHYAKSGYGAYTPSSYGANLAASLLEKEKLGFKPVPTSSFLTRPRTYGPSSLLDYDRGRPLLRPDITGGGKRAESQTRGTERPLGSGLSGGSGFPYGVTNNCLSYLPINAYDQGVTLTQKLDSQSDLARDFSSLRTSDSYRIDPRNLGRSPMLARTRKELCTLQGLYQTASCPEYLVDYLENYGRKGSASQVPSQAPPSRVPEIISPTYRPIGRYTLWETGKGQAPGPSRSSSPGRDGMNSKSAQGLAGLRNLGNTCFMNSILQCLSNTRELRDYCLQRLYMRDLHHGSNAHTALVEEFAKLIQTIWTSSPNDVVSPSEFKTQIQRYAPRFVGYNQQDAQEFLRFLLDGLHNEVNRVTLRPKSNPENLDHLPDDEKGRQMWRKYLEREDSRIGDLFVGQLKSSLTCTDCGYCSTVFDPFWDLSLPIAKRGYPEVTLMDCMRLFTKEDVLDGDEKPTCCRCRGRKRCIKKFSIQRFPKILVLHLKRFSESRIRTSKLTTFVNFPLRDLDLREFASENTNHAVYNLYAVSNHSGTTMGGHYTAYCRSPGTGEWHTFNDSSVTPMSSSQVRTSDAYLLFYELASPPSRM

Structure (SMILES)	Potency
O=C1NC(=S)NC(=O)C1=Cc1ccc(Br)s1	inactive
FC(F)(F)c1ccc2c(c1)N(CCCN1CCN(CCCl)CC1)c1ccccc1S2	inconclusive: 22.4 µM [falling, single point]
COc1ccc(CN2C(=O)NC(=O)/C(=C/c3ccoc3)C2=O)cc1	inconclusive: 22.4 µM [fluorescent, single point]
Cc1cc2c(C(C)C)c(O)c(O)c(C=O)c2c(O)c1-c1c(C)cc2c(C(C)C)c(O)c(O)c(C=O)c2c1O	active: 5.62 µM
CC1CCCCN1C(=O)Cn1cc(C=C2C(=O)N(C)C(=O)N(C)C2=O)c2ccccc21 (stereo not given)	inconclusive: 28.2 µM [fluorescent, single point]
O=c1cc(C(F)(F)F)c2cc3c4c(c2o1)CCCN4CCC3	inconclusive: 3.98 µM [fluorescent, partial curve]
O=C(CSc1ccc(Cl)cc1)NC1=NN(c2ccccc2)C(=O)C1	inconclusive: 12.6 µM [falling, single point]
CCOC(=O)C1CCCN(c2ccc([N+](=O)[O-])c3nonc23)C1 (stereo not given)	inconclusive: 11.2 µM [fluorescent, partial curve]
Cc1ccc(N2C(=O)NC(=O)/C(=C\c3cccn3C(C)(C)C)C2=O)cc1	inactive
O=C1NC(=O)N(Cc2ccco2)C(=O)/C1=C/C=C/c1ccco1	inconclusive: 28.2 µM [falling, single point]
CCN(CC)C(=O)Cn1cc(C=C2C(=O)N(C)C(=O)N(C)C2=O)c2ccccc21	inconclusive: 28.2 µM [fluorescent, single point]
Brc1ccccc1	inactive
CCN(CC)c1ccc(N=Cc2c(O)n(Cc3ccco3)c(=O)[nH]c2=O)cc1	inactive
O=C1NC(=O)[C@]2(Cc3ccccc3N3CCN(c4ccccc4)CC32)C(=O)N1Cc1ccccc1 (stereo not given in full)	inconclusive: 22.4 µM [falling, single point]
CC(=Nc1ccc2c(c1)CCC2)c1c(O)n(C)c(=O)n(C)c1=O	inconclusive: 28.2 µM [falling, single point]
O=C1NC(=O)N(Cc2ccco2)C(=O)/C1=C/c1cccn1CCOc1ccccc1Cl	inconclusive: 22.4 µM [falling, single point]
Nc1ccc2c(c1)oc1ccccc12	inactive
CN(C)[C@@H]1C(=O)C(C(N)=O)=C(O)[C@@]2(O)C(=O)C3=C(O)c4c(O)cccc4[C@@](C)(O)[C@H]3[C@H](O)[C@@H]12	inconclusive: 28.2 µM [falling, single point]
O=[N+]([O-])c1ccc(N2CCCCCC2)c2nonc12	inconclusive: 11.2 µM [fluorescent, partial curve]
Nc1cc2nc3ccccc3nc2cc1N	inconclusive: 15.8 µM [fluorescent, single point]

Structure (SMILES)	Potency
Cc1ccc(-c2[nH]nc3c2C(c2ccccc2OC(=O)N2CCOCC2)C(C#N)=C(N)O3)cc1 (stereo not given)	inconclusive: 28.2 µM [fluorescent, single point]
Clc1ccc(C(c2ccc(Cl)cc2)n2cc[n+](CC(OCc3ccc(Cl)cc3Cl)c3ccc(Cl)cc3Cl)c2)cc1 (stereo not given)	inconclusive: 20 µM [falling, single point]
O=c1[nH]c(=O)n(-c2ccccc2)c(O)c1/C=C/C=Nc1ccccc1	inconclusive: 11.2 µM [fluorescent, partial curve]
O=C(OCC1O[C@@H](OC(=O)c2cc(O)c(O)c(O)c2)[C@@H](OC(=O)c2cc(O)c(O)c(O)c2)[C@@H](OC(=O)c2cc(O)c(O)c(O)c2)[C@@H]1OC(=O)c1cc(O)c(O)c(O)c1)c1cc(O)c(O)c(O)c1 (stereo not given in full)	active: 6.31 µM
Cc1ccc2[nH]c(C)c(CCNC(=O)c3cc4cc([N+](=O)[O-])ccc4oc3=O)c2c1	inconclusive: 22.4 µM [falling, single point]
CN(C)[C@@H]1C(=O)C(C(N)=O)=C(O)[C@@]2(O)C(=O)C3=C(O)c4c(O)cccc4[C@@](C)(O)C3[C@H](O)C12 (stereo not given in full)	inconclusive: 11.2 µM [fluorescent, single point]
C=CCn1c(O)c(C(CC)=NCCN2CCOCC2)c(=O)[nH]c1=O	inconclusive: 5.01 µM [falling, single point]
COc1ccc(S(=O)(=O)Cc2ccc(C(=O)N3CCC4(CC3)OCCO4)o2)cc1	inconclusive: 20 µM [falling, single point]
Cc1ccccc1N1C(=O)/C(=C/c2ccco2)C(=O)NC1=S	inconclusive: 22.4 µM [falling, single point]
CCNc1cc(N2CCN(C)CC2)ccc1[N+](=O)[O-]	inactive
CCCC1=C(C(=O)OCC)C2(C(=O)Nc3ccc(C)cc32)C(C#N)=C(N)O1 (stereo not given)	inconclusive: 28.2 µM [falling, single point]
Cc1ccc2[nH]c3c(c2c1)CN(C(=O)CN1CCSCC1)CC3	inconclusive: 12.6 µM [falling, single point]
O=c1[nH]c(=S)n(Cc2ccco2)c(O)c1C=NCc1cccs1	inconclusive: 25.1 µM [falling, single point]
O=C(O)c1cn(Cc2ccccc2)nc1-c1ccccc1	inactive
COc1ccc2c3c1OC1[C@H](O)CCC4[C@@H](C2)N(C)CC[C@]314 (stereo not given in full)	inactive
CC(C)C[C@H]1C(=O)N2CCC[C@H]2[C@]2(O)O[C@](NC(=O)[C@@H]3C=C4c5cccc6[nH]cc(c56)C[C@H]4N(C)C3)(C(C)C)C(=O)N12	inconclusive: 11.2 µM [fluorescent, single point]
COc1ccc(-n2c(O)c(/C=C/C=Nc3ccccc3)c(=O)[nH]c2=O)cc1	inconclusive: 12.6 µM [fluorescent, partial curve]
O=c1c2ccccc2nc(/C=C/c2ccc3c(c2)OCO3)n1-c1ccccc1	inconclusive: 11.2 µM [fluorescent, single point]
O=Cc1c(C(=O)O)n(Cc2ccc(Cl)cc2)c2ccccc12	inconclusive: 2.82 µM [fluorescent, full curve]
Cc1nn(Cc2ccc(Cl)cc2Cl)c(Cl)c1C(=O)Nc1ccc(OC(F)F)cc1	inconclusive: 25.1 µM [falling, single point]

Structure (SMILES)	Potency
CC[C@@H](CO)NC(=O)[C@@H]1C=C2c3cccc4c3c(cn4C)C[C@H]2N(C)C1	inconclusive: 11.2 µM [fluorescent, partial curve]
O=C1NC(=S)N(Cc2ccco2)C(=O)/C1=C\c1cccs1	inconclusive: 22.4 µM [falling, single point]
CN1C[C@H](CNC(=O)OCc2ccccc2)C[C@@H]2c3cccc4c3c(cn4C)C[C@H]21	inconclusive: 10 µM [fluorescent, partial curve]
NC(=O)CSc1nnc([C@@H](N)Cc2c[nH]c3ccccc23)o1	inactive
CC(C)[C@H]1C(=O)N2CCC[C@H]2[C@]2(O)O[C@](NC(=O)[C@@H]3C=C4c5cccc6[nH]cc(c56)C[C@H]4N(C)C3)(C(C)C)C(=O)N12	inconclusive: 11.2 µM [fluorescent, partial curve]
CC(C)C[C@H]1C(=O)N2CCCC2[C@]2(O)O[C@](NC(=O)[C@@H]3C=C4c5cccc6[nH]cc(c56)CC4N(C)C3)(C(C)C)C(=O)N12 (stereo not given in full)	inconclusive: 12.6 µM [fluorescent, single point]
CN1/C(=C\C=C2C(=O)NC(=O)NC2=O)C(C)(C)c2ccccc21	inconclusive: 28.2 µM [fluorescent, single point]
O=C(COc1ccc(S(=O)(=O)N2CCOCC2)cc1)N1CCN(Cc2ccc3c(c2)OCO3)CC1	inconclusive: 5.01 µM [falling, single point]
C=CCn1c(O)c(/C=N/NC(=O)c2ccncc2)c(=O)[nH]c1=O	inactive
O=C(CNC(=O)OCc1ccccc1)Nc1ccc(Br)cc1C(=O)c1ccccc1	inactive
CC(=O)c1ccc(-c2ccc(Cn3c(C)nc4cc(N)c(C)nc43)cc2)cc1	inconclusive: 10 µM [fluorescent, partial curve]
CC1(C)OC(c2ccccc2)=C/C(=C/C=C2C(=O)NC(=O)NC2=O)O1	inconclusive: 7.94 µM [fluorescent, partial curve]
COc1ccc(NC(=O)c2c(C)nn(Cc3ccccc3Cl)c2Cl)cc1Cl	inconclusive: 3.55 µM [falling, single point]
Cc1cccc(N2C(=O)/C(=C/c3ccc(N4CCN(C)CC4)o3)C(=O)NC2=S)c1C	inconclusive: 11.2 µM [fluorescent, single point]
Cc1ccccc1N1C(=O)NC(=O)/C(=C/c2ccc(N3CCOCC3)o2)C1=O	inconclusive: 11.2 µM [fluorescent, partial curve]
COc1ccc(N2C(=O)NC(=O)/C(=C\c3cn(C)c4ccccc34)C2=O)cc1	inconclusive: 28.2 µM [fluorescent, single point]
Cn1c(O)c(C=Nc2cccc(C(F)(F)F)c2)c(=O)n(C)c1=O	inconclusive: 11.2 µM [fluorescent, single point]
CC1=NCCc2c1[nH]c1cc(O)ccc21	inconclusive: 12.6 µM [fluorescent, partial curve]
Nc1ccc2ccc3cccc[n+]3c2c1	inconclusive: 10 µM [fluorescent, partial curve]
CCc1ccccc1N1C(=O)/C(=C/c2ccc(N3CCN(C)CC3)o2)C(=O)NC1=S	inconclusive: 11.2 µM [fluorescent, single point]
